# Experimental data as given in article PMC4336329 (PLoS ONE, 2015).
# In all, about 310,000 compounds went through this assay and about 14,000 (4.5%) showed an effect of 50% or more. The effect is printed as a negative number. The list shows a part of the results.
# Target: human ether-à-go-go-related gene (hERG) potassium channel (human, UniProt Q12809)
# Assay: primary screen, population patch clamp on CHO cells stably expressing hERG
# 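Note: peak tail current of the secondary pulse compared with the same well before compound.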
# Sequence of human ether-à-go-go-related gene (hERG) potassium channel (Q12809 whole entry, looked up): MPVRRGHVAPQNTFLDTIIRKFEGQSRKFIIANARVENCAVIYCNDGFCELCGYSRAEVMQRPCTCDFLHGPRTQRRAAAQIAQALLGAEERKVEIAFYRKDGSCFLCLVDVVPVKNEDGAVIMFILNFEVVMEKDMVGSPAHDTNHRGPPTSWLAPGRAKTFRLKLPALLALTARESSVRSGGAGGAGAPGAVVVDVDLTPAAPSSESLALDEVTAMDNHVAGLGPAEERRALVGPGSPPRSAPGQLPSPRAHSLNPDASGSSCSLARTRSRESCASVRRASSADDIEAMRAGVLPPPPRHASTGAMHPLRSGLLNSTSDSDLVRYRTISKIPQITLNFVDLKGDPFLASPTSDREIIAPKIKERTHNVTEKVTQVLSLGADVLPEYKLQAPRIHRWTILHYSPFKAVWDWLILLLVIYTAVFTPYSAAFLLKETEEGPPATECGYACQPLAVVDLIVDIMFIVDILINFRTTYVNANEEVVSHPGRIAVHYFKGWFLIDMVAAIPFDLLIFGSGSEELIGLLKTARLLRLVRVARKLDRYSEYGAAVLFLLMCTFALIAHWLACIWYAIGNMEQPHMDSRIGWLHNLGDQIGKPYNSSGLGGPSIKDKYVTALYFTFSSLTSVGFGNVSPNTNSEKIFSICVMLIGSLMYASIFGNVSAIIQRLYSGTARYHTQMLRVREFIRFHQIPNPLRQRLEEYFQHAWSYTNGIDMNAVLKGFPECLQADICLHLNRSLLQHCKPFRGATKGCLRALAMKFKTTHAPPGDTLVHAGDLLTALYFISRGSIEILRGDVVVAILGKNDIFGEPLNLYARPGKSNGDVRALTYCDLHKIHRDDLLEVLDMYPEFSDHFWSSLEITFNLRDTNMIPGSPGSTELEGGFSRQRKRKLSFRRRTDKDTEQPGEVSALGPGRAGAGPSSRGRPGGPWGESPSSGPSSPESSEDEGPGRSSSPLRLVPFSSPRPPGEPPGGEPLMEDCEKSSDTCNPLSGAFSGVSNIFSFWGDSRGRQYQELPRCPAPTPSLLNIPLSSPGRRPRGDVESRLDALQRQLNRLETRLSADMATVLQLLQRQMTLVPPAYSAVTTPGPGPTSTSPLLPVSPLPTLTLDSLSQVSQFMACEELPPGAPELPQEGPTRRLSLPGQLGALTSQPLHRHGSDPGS
row,Compound,"hERG current change (%, negative = inhibition) at 10uM [%]"
1,S=c1[nH]nc(C23CC4CC(CC(C4)C2)C3)n1Cc1ccco1,-13.7
2,COC(=O)c1c(SCc2cccc3ccccc23)nc(=O)[nH]c1C,7.87
3,CN(C)Cc1c(C(=O)Nc2ccccc2)[nH]c2ccccc12,-30.1
4,Cc1ccc(-n2ccnc(SCC(=O)NC3CCCCC3)c2=O)cc1F,15.3
5,O=C1c2ccccc2C(=O)N1CC1c2ccccc2CCN1C(=O)CN1CCOCC1 (stereo not shown),-24.3
6,CC(=O)NCCc1ccc(S(=O)(=O)Nc2cccnc2)cc1,17.2
7,O=C(NC1CCCCC1)N(Cc1nc2ccccc2c(=O)[nH]1)C1CCCCC1,2.79
8,CCOc1cccc(C(=O)Nc2ccccc2OC(F)F)c1,-23.8
9,CC(C)C[C@H](NC(=O)[C@H]1N2C(=O)c3ccccc3C2SC1(C)C)C(=O)N[C@@H](Cc1ccccc1)C(=O)O (stereo partly shown),11.3
10,CC(=O)Nc1ccc(S(=O)(=O)NNC(=O)NC23CC4CC(CC(C4)C2)C3)cc1,11.4
11,CC(=O)Nc1ccc(NC(=O)CSc2nnc(NC(=O)C3CC3)s2)cc1,12.2
12,Cc1noc(C)c1S(=O)(=O)N1CCN(c2ccc([N+](=O)[O-])cc2)CC1,-69
13,C1CCCC(NC2=NCCO2)CCC1,16.3
14,O=C(CCc1nc2ccccc2s1)c1ccccc1,-4.47
15,CCCCC1=NN2C(=N)CC(=O)N=C2S1,11.9
16,CCc1ccc(S(=O)(=O)NCc2cn3ccccc3n2)s1,-11
17,Cc1cs/c(=N\N=C\c2cccc([N+](=O)[O-])c2)n1Cc1ccco1,15.1
18,CCOc1ccc(/C=C/C(=O)N2CCOCC2)cc1OC,1.23
19,CCS(=O)(=O)c1ccc(C(=O)Nc2cccc(Cl)c2)c(Cl)c1Cl,-3.97
20,Cc1ccccc1CN1CCc2c(OCC(=O)N3CCCc4ccccc43)cccc2C1=O,3.93
21,COc1ccc(Cl)cc1-c1nc(SCC(=O)NCC2CCCO2)n[nH]1 (stereo not shown),0.836
22,CCn1c(SCC(=O)NC(C)c2ccccc2)nc2ccccc21 (stereo not shown),18

row,Compound,"hERG current change (%, negative = inhibition) at 10uM [%]"
1,O=[N+]([O-])c1ccccc1Nc1ccc(O)cc1,6.97
2,CCn1c(SCC(=O)NC2CCCc3ccccc32)nnc1-c1cccs1 (stereo not shown),-24.6
3,COc1ccc(NC2CCCN(C(=O)c3ccc(C)nc3)C2)cc1 (stereo not shown),-10.7
4,CCCCCN(C(=O)CCC(=O)OCC(=O)N(C)Cc1ccc(C)cc1)c1c(N)n(CCCC)c(=O)[nH]c1=O,1.93
5,O=C(Oc1ccc2ccc(=O)oc2c1)N1CCOCC1,8.7
6,Cc1ccccc1NS(=O)(=O)c1ccc(C)c(NS(C)(=O)=O)c1C,16.8
7,CCN1c2ccccc2S(=O)(=O)c2ccccc21,0.294
8,O=C1CC(/C=C/c2ccco2)=Nc2ccccc2N1,5.64
9,Cc1ccc(N(C(=O)c2snc(C(N)=O)c2N)C(C(=O)NC2CCCC2)c2ccncc2)cc1 (stereo not shown),-12
10,Cn1c(N)c(C(=O)c2cc(-c3ccccc3)nc3ccccc23)c(=O)n(C)c1=O,-3.5
11,COc1ccccc1N1C(=O)CC(c2ccccc2)CC1=O,8.09
12,O=C(c1cccc(F)c1)N1CCN(C(=O)C2CC2)CC1,14
13,Cc1ccc(NC(=O)c2ccc3c(c2)NC(=O)CS3)nc1,6.05
14,COc1cc(OC)cc(OC(=O)C2CCN(C(=O)c3ccc(F)cc3)CC2)c1,-7.47
15,Cc1cccc(NC(=O)CS(=O)CC(=O)Nc2cnc3ccccc3c2)c1C (stereo not shown),2.45
16,O=C(OCC(=O)N1CCN(c2ccccc2)CC1)c1ccc2ncsc2c1,-21.5
17,CCO[C@H]1OC(C(N)=O)=C[C@@H](c2coc3ccccc3c2=O)[C@@H]1CCCO,0.643
18,CCOC(=O)N1CCC(Nc2c(OCC)c(=O)c2=O)CC1,3.96
19,O=C(Nc1scc(-c2cccs2)c1C(=O)O)c1cccs1,15
20,O=C1/C(=C/c2ccc(Cl)cc2)SC(=S)N1CCC(=O)N1CCCCC1CCO (stereo not shown),4.72
21,COc1ccc(C)cc1NC(=O)c1cc(S(=O)(=O)N2CCCC2)cn1C,-14.9
22,Cc1ccc(Nc2nnc(SCC(=O)NC(Cc3c[nH]c4ccccc34)C(=O)O)s2)cc1 (stereo not shown),31.9

row,Compound,"hERG current change (%, negative = inhibition) at 10uM [%]"
1,Cc1cccc(Nc2nc(N)nc(CN3CCN(Cc4ccc5c(c4)OCO5)CC3)n2)c1,-75.2
2,O=C(CCCC1=NS(=O)(=O)c2ccccc2N1)NCCc1ccc(Cl)cc1,11.6
3,Cc1ccccc1/C(N)=N/O,6.47
4,C/C(Cn1nnc2ccccc21)=N\NC(=O)c1cccc(Br)c1,-27.2
5,CC1=CCC2C(=O)N(c3ccc(N4CCOCC4)cc3)C(=O)C2C1 (stereo not shown),1.26
6,COc1ccc([N+](=O)[O-])cc1N(CC(=O)NCCCOC(C)C)S(C)(=O)=O,13.3
7,CCCC/C=C1\CCc2c([nH]c3ccccc23)C1=O,10.1
8,COc1cc(C2Nc3ccc4ccccc4c3C3=C2C(=O)CC(C)(C)C3)ccc1OC(C)C(=O)O (stereo not shown),14.1
9,C=CCNC(=O)c1ccc(C)c(Br)c1,-7.74
10,CC1=NN(c2ccccc2)C(=O)/C1=C/c1c(O)n(-c2ccc(F)c(Cl)c2)[nH]c1=O,31.4
11,O=C(c1cc2cc(Cl)ccc2[nH]1)N1CCN(C(=O)c2ccco2)CC1,-49.2
12,CCCn1nc(NC(=O)C2CCCO2)c2cc3cccc(C)c3nc21 (stereo not shown),-0.731
13,O=C1NC(=O)N(c2ccc3c(c2)OCO3)C(=O)/C1=C\c1ccc(N2CCCCC2)o1,0.674
14,O=C(Oc1ccc(C(=S)N2CCOCC2)cc1)c1ccccc1,67.9
15,COc1ccccc1CCN=C(N)NS(=O)(=O)c1ccc(C)c(C)c1,9.37
16,O=[N+]([O-])c1cc(C(F)(F)F)ccc1N1CCN(S(=O)(=O)c2ccc3ccccc3c2)CC1,9.11
17,CC1CCCN(CCCNC(=O)C2CCCN(c3ncnc4c3nc3n4CCCCC3)C2)C1 (stereo not shown),-4.72
18,COc1ccc(NS(=O)(=O)c2cc(NC(=O)C3CCCO3)ccc2N2CCCCC2)cc1 (stereo not shown),7.98
19,O=S(=O)(Nc1ccccn1)c1ccc(Cl)cc1,-0.154
20,Clc1ccccc1-c1nn2c(COc3ccccc3)nnc2s1,-20.6
21,S=c1[nH]nc(-c2cc(-c3ccccc3)n[nH]2)n1/N=C/C=C/c1ccccc1,20.7
22,COc1ccc(N2CCN(C(c3cc(OC)ccc3OC)c3nnnn3CC3CCCO3)CC2)cc1.Cl (stereo not shown),-9.64

row,Compound,"hERG current change (%, negative = inhibition) at 10uM [%]"
1,C/C(=N\NC(=O)c1cc(Br)ccc1O)c1cccc(NC(=O)c2ccccc2F)c1,24.6
2,COc1cc(C)c(CN2CCN(C(C)C(=O)NC(C)c3ccccc3)CC2)cc1OC (stereo not shown),-18.3
3,Cc1cc(C(=O)Nc2ccncc2)c2ccccc2n1,23.2
4,O=C(Nc1ccc(N2C(=O)C3C4C=CC(C4)C3C2=O)cc1)Nc1cccnc1 (stereo not shown),4.61
5,CCc1cccc(CC)c1NC(=O)CN1C2CCCC1CC(NC(=O)Nc1cccc(OC)c1)C2 (stereo not shown),-7.7
6,Cn1c(SCCOc2cccc(Cl)c2)nnc1-c1ccncc1,-45.6
7,COc1ccc(C(=O)OCc2ccccc2F)cc1S(=O)(=O)N1CCCC1,-8.37
8,CC(C)(C)OC(=O)NCc1ccc(CNC(=O)c2nc[nH]c2C(=O)N2CCc3ccccc3C2)cc1,-19.5
9,COc1ccccc1NC(=O)CNC(=O)c1ccccc1,3.46
10,CCOc1cnn(-c2cc(Oc3ccc(C)cc3)ncn2)c(=O)c1Cl,-12.4
11,O=C(CN1CCC(n2nnc3cc(C(F)(F)F)ccc32)CC1)Nc1ccc2c(c1)OCCO2,-36.5
12,CCC1(C)Cc2c(sc3nc(SC)nc(N)c23)CO1 (stereo not shown),-7.82
13,CCOC(=O)C1=C(C)N(C)C(=S)N(C)C1c1ccc(OC)cc1 (stereo not shown),-10.5
14,COC(=O)CN1C(=S)N(c2ccc(F)cc2)C(=O)C1CC(=O)Nc1ccccc1 (stereo not shown),-4.25
15,COc1cccc(C2CC(c3ccccc3)=NN2S(=O)(=O)c2ccc(C)cc2)c1OC (stereo not shown),3.4
16,COc1ccc(N2CCN(C(=O)c3ccncc3)CC2)cc1,-32
17,CCOC(=O)N1CCN(C(=O)CSc2ccc(-c3ccncc3)nn2)CC1,-0.414
18,O=C(Nc1ccc(Cl)cc1N1CCOCC1)C1CC1,7.16
19,CC1CC(C)CN(CCCNC(=O)CC2Oc3ccccc3NC2=O)C1 (stereo not shown),-10.1
20,O=C(Nc1nnc(COc2ccc(F)cc2)s1)Nc1ccccc1F,10.5
21,CC(C)(C)NC(=O)CSc1ncnc2c1cnn2-c1ccccc1,-1.27
22,CCOc1ccc2nc(SC(C)C(N)=O)[nH]c2c1 (stereo not shown),14.4
